Several values for one entry are separate records, joined by “and”; a condition that tells them apart may be missing. Equal values may be shown once. In all, about 420,000 compounds went through this assay and about 50,000 (12%) were called active. Inconclusive results (about 26%) are left out. Calls come from the whole dose curve; as a rule, active = well fitted inhibition curve with a large enough effect; inconclusive = small, poorly fitted or top-dose-only effect; inactive = flat fitted curve, though single readings scatter. The entries are a selection whose mix differs from that of the whole data set. More than one record can exist for a structure, and the calls need not agree.
Test: qHTS for Inhibitors of human tyrosyl-DNA phosphodiesterase 1 (TDP1): qHTS in cells in presence of CPT; note: nearly all actives have a fitted effect of over 55% in size
Settings: chicken DT40 Tdp1-/-;hTDP1 cells + 20 nM CPT, ATP luminescence, 48 h; series mostly up to 46.2 µM; activity change, negative = growth inhibition: at the top concentration
How it was run: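 Chicken DT40 Tdp1-/- cells stably complemented with human TDP1 were seeded at 400 cells/well in medium containing 20 nM camptothecin, exposed to pin-transferred compounds, and grown at 37 °C for at least 48 hr. Viability was read as ATP luminescence.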
% is set by controls: 0 for no effect and ±100 for the full control effect; potency is the fitted concentration of half-maximal effect.

Structure (SMILES)	Potency	activity change, negative = growth inhibition
CC1=CC(C)CC(C)OC(=O)CC(c2ccc(O)cc2)NC(=O)C(Cc2c(Br)[nH]c3ccccc23)N(C)C(=O)C(C)NC(=O)C(C)C1 (configuration not stated)	active: 0.0259 µM	–
CCN(CC)CCOC(=O)C(O)(c1ccccc1)c1ccccc1	–	inactive: -21.6%
CNC(=O)Oc1ccc2c(c1)[C@]1(C)CCN(C)[C@@H]1N2C	inactive	–
O=C(O)C(O)C(O)C(O)C(O)C(=O)O (configuration not stated) (tested in a mixture with another compound)	–	inactive: 9.21%
CC[C@H]1C2CC3[C@@H]4N(C)c5ccccc5[C@]45C[C@@H](C2[C@H]5O)N3[C@@H]1O (some centres not stated)	–	inactive: -1.7%
O=C1NC(=O)N(Cc2ccccc2)C(=O)/C1=C\c1ccco1	active: 20.6 µM	–
c1ccc(C2CC2)c(OCC2=NCCN2)c1	inactive	–
C[C@]12CCC3C(CC[C@]4(O)CC(O)CC[C@@]34C=O)[C@]1(O)CCC2C1=CC(=O)OC1 (some centres not stated)	–	inactive: 10.2%
Cc1ccc2c(Cl)cc(Cl)c(O)c2n1	–	inactive: 5.36%
CN1C[C@H](C(=O)N[C@@]2(C)O[C@@]3(O)C4CCCN4C(=O)C(Cc4ccccc4)N3C2=O)C[C@H]2c3cccc4[nH]cc(c34)C[C@H]21 (some centres not stated)	–	inactive: 12.3%
CC(C)=CCN1CC[C@@]2(C)c3cc(O)ccc3CC1C2C (some centres not stated)	–	inactive: -20.6%
CCC1C2CC3C4N(C)c5ccccc5C45CC(C2C5O)N3[C@@H]1O (some centres not stated)	–	inactive: -13.7%
Cc1cccc(Cc2cnc(NC(=O)c3ccc4c(c3)CC(c3ccccc3)OC4=O)s2)c1 (configuration not stated)	active: 25.9 µM	–
C[C@]12CCC3C(CC[C@H]4C[C@@H](O)CC[C@]34C)C1C[C@@H](O)[C@@H]2O (some centres not stated)	–	inactive: -17.4%
CN1[C@@H](CC(=O)c2ccccc2)CCC[C@H]1C[C@H](O)c1ccccc1	inactive	–
CCOP(=S)(OCC)Oc1ccc2c(C)c(Cl)c(=O)oc2c1	–	inactive: -21.4%
CC(C)=CCN1CC[C@]2(C)c3cc(O)ccc3C[C@H]1[C@H]2C	–	inactive: -13.7% [at 92.5 µM]
C=CCN1CC[C@@]2(C)c3cc(O)ccc3CC1[C@@H]2C	–	inactive: -4.08%
O=c1[nH]c(=S)n(-c2cccc(Cl)c2)c(O)c1C=NCCN1CCNCC1	–	inactive: 30.3%
CC(C)NS(=O)(=O)c1ccc(OCC(=O)N2CCN(Cc3ccc4c(c3)OCO4)CC2)c(Cl)c1	active: 16.4 µM	–
CN(C)CCC=C1c2ccccc2CCc2ccccc21	–	inactive: 12.4%
CNC(=O)Oc1ccc2c(c1)[C@]1(C)CCN(C)C1N2C (some centres not stated)	–	inactive: -25.5%
COc1cccc([C@@]2(O)CCCC[C@@H]2CN(C)C)c1	inactive	–
CCc1ccccc1NC(=O)CNC1CCCCC1	–	inactive: 8.35%
NC(N)=Nc1ccc2[nH]c3c(c2c1)C[C@@]1(O)[C@H]2Cc4ccc(O)c5c4[C@@]1(CCN2CC1CC1)[C@H]3O5	active: 2.31 µM	–
C[N+]1(C)CCc2cc3c(cc2[C@H]1[C@@H]1OC(=O)c2c1ccc1c2OCO1)OCO3	–	inactive: 11.3%

Structure (SMILES)	Potency	activity change, negative = growth inhibition
CC(C)(O)[C@@H]1[C@H]2OC(=O)[C@@H]1[C@]1(O)C[C@H]3O[C@]34C(=O)O[C@H]2[C@]14C	inactive	–
CCc1ccc(Nc2nc3c(S(=O)(=O)c4ccc(C)cc4)nnn3c3ccsc23)cc1	active: 3.66 µM	–
CN1[C@H](CC(=O)c2ccccc2)CCC[C@H]1C[C@@H](O)c1ccccc1	–	inactive: 13.4%
CCn1cc2nc(SCc3cccc(C(F)(F)F)c3)n(Cc3ccc(OC)cc3)c(=O)c2n1	active: 20.6 µM	–
COc1ccc(-c2cc(=NCCCCCC(=O)O)c3cc(C)ccc3o2)cc1	–	inactive: -19.2%
CCOc1ccc(CN(CCCl)CCCl)cc1C(=O)OC	active: 4.11 µM	–
COc1ccccc1CN1CCN(C(=O)COc2cccc(C)c2)CC1	–	inactive: 2.24%
CC[C@@H](CO)NC(=O)[C@@H]1C=C2c3cccc4c3c(cn4C)C[C@H]2N(C)C1	inactive	–
CCn1cc(C(=O)O)c(=O)c2cc(F)c(N3CCNCC3)cc21	–	inactive: -26.8%
OCC(Cl)CCl (configuration not stated)	–	inactive: -1.06%
CC(=O)OCC(=O)C1CCC2C3CC=C4CC(O)CCC4(C)C3CCC12C (configuration not stated)	–	inactive: -2.17%
O=C(O)c1ccccc1Nc1cccc(C(F)(F)F)c1	–	inactive: -22.3%
C[C@]12CC[C@H]3[C@@H](CCC4=CC(=O)CC[C@@]43C)[C@@H]1CC[C@@H]2O	inactive	–
CC(C)(C)C(O)C(Oc1ccc(Cl)cc1)n1cncn1 (configuration not stated)	–	inactive: -9.71%
C[C@]12CCC3C(CC[C@H]4C[C@@H](O)CC[C@]34C)C1C[C@@H](O)[C@H]2O (some centres not stated)	–	inactive: 10.8%
C[C@H](CCC(=O)O)[C@H]1CC[C@H]2[C@@H]3C(=O)C[C@@H]4CC(=O)CC[C@]4(C)[C@H]3CC(=O)[C@]12C	–	inactive: 0.133%
CNC(=O)CSP(=S)(OC)OC	–	inactive: 0.433%
ClC1C(Cl)C(Cl)C(Cl)C(Cl)C1Cl (configuration not stated)	inactive	–
CC12CC3CC(C)(C1)CC(N)(C3)C2	inactive	–
CN1[C@H](CC(=O)c2ccccc2)CCC[C@H]1C[C@H](O)c1ccccc1	–	inactive: -1.83%
O=C(COc1ccc2c3c(c(=O)oc2c1)CCC3)N1C[C@H]2C[C@@H](C1)c1cccc(=O)n1C2	–	inactive: 33.8%
COc1cc(CNC(=O)CCCC/C=C/C(C)C)ccc1O	active: 29.9 µM and active: 11.2 µM	–
CN1C[C@@H](CO)C=C2c3cccc4[nH]cc(c34)CC21 (some centres not stated)	–	inactive: 10.2%
CN1CCc2cc(O)cc3c2C1Cc1ccc(O)c(O)c1-3 (configuration not stated)	active: 2.59 µM	–
c1ccc(-c2ccc(C(c3ccccc3)n3ccnc3)cc2)cc1 (configuration not stated)	active: 10.3 µM	–
COc1ccc(CN2C(=O)NC(=O)/C(=C/c3cc(OC)c(OC)c(OC)c3)C2=O)cc1	–	inactive: -15.6%

Structure (SMILES)	Potency	activity change, negative = growth inhibition
CC(=O)[C@@]1(O)CC[C@H]2[C@@H]3CCC4=CC(=O)CC[C@]4(C)[C@H]3CC[C@@]21C	–	inactive: 9.24%
CN(C)C1C(=O)C(C(N)=O)=C(O)C2(O)C(=O)C3=C(O)c4c(O)cccc4C(C)(O)C3CC12 (configuration not stated)	–	inactive: -27%
CC1=C[C@@H]2c3cccc4[nH]cc(c34)C[C@H]2N(C)C1	–	inactive: -21.5%
CC(C)OC(=O)OCOP(=O)(CO[C@H](C)Cn1cnc2c(N)ncnc21)OCOC(=O)OC(C)C	–	inactive: 12.5%
Cc1ccc(O)c(C(CCN(C(C)C)C(C)C)c2ccccc2)c1 (configuration not stated)	–	inactive: -10.1%
CC(C)=CCN1CC[C@@]2(C)c3cc(O)ccc3C[C@@H]1C2C (some centres not stated)	–	inactive: -20.3%
c1cc2c(cc1[C@H]1OC[C@@H]3[C@H]1CO[C@H]3c1ccc3c(c1)OCO3)OCO2	–	inactive: -45.4%
Cc1ccc(-c2nc3ccc(C)cn3c2CC(=O)N(C)C)cc1	–	inactive: -12.8%
COC(=O)[C@@H]1C(OC(=O)c2ccccc2)CC2CCC1N2C (some centres not stated)	–	inactive: -19.5%
c1cc2c(cc1[C@H]1OC[C@H]3[C@@H]1CO[C@@H]3c1ccc3c(c1)OCO3)OCO2	–	inactive: -10.6%
CN1CC[C@]23c4c5ccc(O)c4OC2C(O)C=CC3[C@H]1C5 (some centres not stated)	–	inactive: -4.16%
CC[C@H]1OC(=O)C[C@@H](O)[C@H](C)[C@@H](O[C@@H]2O[C@H](C)[C@@H](O[C@H]3C[C@@](C)(O)[C@@H](O)[C@H](C)O3)[C@H](N(C)C)[C@H]2O)[C@@H](CC=O)C[C@@H](C)C(=O)/C=C/C(C)=C/[C@@H]1CO[C@@H]1O[C@H](C)[C@@H](O)[C@@H](OC)[C@H]1OC	inactive	–
CCCCc1ccc(C(=O)O)nc1	inactive	–
C[N+](C)(C)CC#CCOC(=O)Nc1cccc(Cl)c1	–	inactive: -2.61%
O=c1[nH]c(=S)n(C2CC2)c(O)c1/C=N/Nc1ccccc1	–	inactive: -7.17%
CCOC(=O)[C@]12Cc3cc4ccccc4cc3[C@H]1N(Cc1ccccc1)C(=O)c1cc(OC)ccc12	active: 8.2 µM	–
C=CCn1c(O)c(C(=O)CCCCCC)c(=O)[nH]c1=O	active: 11.6 µM	–
CCCN[C@@H]1C(=O)N2C(C(=O)OCCC)=C(C)CS[C@H]12	–	inactive: -28.6%
CCC(C(=O)OCCOCCN(CC)CC)c1ccccc1 (configuration not stated)	inactive	–
CC1(C)OC1COc1c2occc2cc2ccc(=O)oc12 (configuration not stated)	–	inactive: -11% [at 9.04 µM]
CC(CCc1ccccc1)NC(C)C(O)c1ccc(O)cc1 (configuration not stated)	–	inactive: -22.6%
CCC(=O)O[C@]1(c2ccccc2)CCN(C)C[C@H]1C	–	inactive: 5.79%
CC(C)[C@@]1(NC(=O)[C@@H]2C[C@@H]3c4cccc5[nH]cc(c45)C[C@H]3N(C)C2)O[C@@]2(O)[C@@H]3CCCN3C(=O)[C@H](Cc3ccccc3)N2C1=O	inactive	–
Nc1ccc(Sc2ccc(N)cc2)cc1	inactive	–
CN(C)c1ccc(/C=C/c2ccnc3c(O)cccc23)cc1	–	inactive: -97.5%
c1cncc(C2CCCCN2)c1 (configuration not stated)	inactive	–

Structure (SMILES)	Potency	activity change, negative = growth inhibition
C[C@H]1CN([C@@H](C)CO)C(=O)CCCn2nncc2CO[C@H]1CN(C)C(=O)Oc1ccccc1	–	inactive: -12.4%
CCCN1CCc2cccc3c2[C@H]1Cc1ccc(O)c(O)c1-3	–	inactive: -84.8%
C[C@]12CC[C@@H]3c4ccc(OC(=O)N(CCCl)CCCl)cc4CC[C@H]3[C@@H]1CC[C@@H]2O	–	inactive: -9.57%
Cc1nn(Cc2ccccc2Cl)c(C)c1C(=O)OCC(=O)NC1CCCC(C)C1C (configuration not stated)	active: 20.6 µM	–
CCCCCCC(=O)c1c(O)n(-c2ccccc2OC)c(=O)[nH]c1=O (tested in a mixture with another compound)	–	inactive: 11.5%
O=[N+]([O-])c1cc([As](=O)(O)O)ccc1O	inactive	–
COc1ccc2c3c([nH]c2c1)C(C)=NCC3	–	inactive: -28.3%
C[C@@H](N)Cc1cnc[nH]1	inactive	–
CN1CCC23c4c5ccc(O)c4O[C@@H]2[C@H](O)C=CC3C1C5 (some centres not stated)	–	inactive: 10.7%
COC(=O)[C@@H](N)CCCN=C(N)N[N+](=O)[O-]	inactive	–
CCOC(=O)c1cc2c(cn1)[nH]c1ccccc12	inactive	–
CC(C)(C)NCC(O)c1cc(Cl)c(N)c(Cl)c1 (configuration not stated)	inactive	–
O=c1ccc2cc(O[C@H]3OC(CO)C(O)C(O)C3O)c(O)cc2o1 (some centres not stated)	inactive	–
CCn1cc(C(=O)O)c(=O)c2ccc(C)nc21	inactive	–
O=c1[nH]c(=S)n(C2CC2)c(O)c1C=NCc1cccnc1	–	inactive: -7.85%
O=[N+]([O-])/N=C1\NCCN1Cc1ccc(Cl)nc1	–	inactive: 4.29%
O=c1ccc2cc(OC3O[C@H](CO)[C@@H](O)[C@H](O)[C@H]3O)c(O)cc2o1 (some centres not stated)	–	inactive: 1.73%
O=C(c1ccc(C(F)(F)F)cc1)C1CCCN(Cc2ccncc2)C1 (configuration not stated)	active: 10.3 µM	–
O=C(C1CC(c2ccc(Cl)c(Cl)c2)=NO1)N1CCC2(CC1)OCCO2 (configuration not stated)	active: 14.6 µM	–
C[C@@H]1CN(CCCn2c3ccccc3c3ccccc32)C[C@H](C)N1	active: 7.5 µM	–
Cc1ccc(N2C(=O)NC(=O)/C(=C/c3ccoc3)C2=O)cc1	–	inactive: -16.8%
CCC1(c2cnc[nH]2)Cc2ccccc2C1	–	inactive: -27.5%
CCCCc1ccc2[nH]cc(CCN)c2c1	active: 20.6 µM	–
COC(=O)C1=CO[C@@H](C)[C@@H]2CN3CC[C@]4(C(=O)Nc5ccccc54)[C@@H]3C[C@H]12	–	inactive: 0.201%
